PubChem BioAssay AID720536 (National Center for Advancing Translational Sciences (NCATS), 2013)
Among all 1,600 compounds or so, about 650 (41%) were called active. The set was probably picked from earlier hits. The shares of active, inactive and inconclusive entries below differ from those in the screen. Calls follow the shape of the dose curve; as a rule, active = well fitted inhibition curve with a large enough effect; inconclusive = small, poorly fitted or top-dose-only effect; inactive = no such curve, though single readings can be large or run the other way. No potency is given beside an inconclusive call; the fits are too rough.

Test: qHTS for Inhibitors of TGF-b: CCL64 Cells Orthogonal Assay for Cherry Picks; also: nearly all actives have a fitted effect of over 65% in size;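 as to activity, negative = inhibition: 0% = stimulated DMSO wells and full inhibition = unstimulated wells without TGF-beta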
Conditions: CCL64 CAGA-GFP reporter, TGF-b stimulated, GFP fluorescence, 18 h; activity, negative = inhibition: at 46.1 µM (top of the series)
Summary of the method: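 CCL64 cells carrying a CAGA-GFP reporter (1000/well, DMEM with 1% FBS) were pre-incubated 2 h at 37 degrees C, given compound, then stimulated with 500 pg/mL TGF-beta for 18 h. Per-cell GFP fluorescence was summed per well.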
Potency is read from the fitted curve at half-maximal effect; tags tell the direction and shape of the fitted curve.

| Structure (SMILES) | activity, negative = inhibition | Potency |
| --- | --- | --- |
| Fc1cc(F)c2nc(Nc3nc4c(F)cccc4s3)sc2c1 | inactive: -1.33% | – |
| COc1ccc(C(NC(=O)CN2C(=O)NC3(CCc4ccccc43)C2=O)c2ccccc2)cc1 (stereo unspecified) | inactive: -22.5% | – |
| COc1ccc(-c2[nH]ncc2-c2ccc(Cl)cc2)c(O)c1 | – | inconclusive [inhibitor, single point] |
| Cc1ccc(SC(C)C(=O)NCc2ccncc2)cc1 (stereo unspecified) | inactive: 14.5% | – |
| Cc1ccc(SCC(=O)Nc2cc([N+](=O)[O-])ccc2O)cc1 | – | inconclusive [inhibitor, single point] |
| O=[N+]([O-])c1cc(Cl)ccc1N1CCN(c2ccccc2O)CC1 | inactive: -7.22% | – |
| OC[C@@H]1CN(Cc2ccc(-c3ccccc3)cc2)C[C@H](n2cnc3c(Nc4ccccc4)ncnc32)O1 | – | inconclusive [inhibitor, single point] |
| O=C(CSc1nnc(-c2ccc(F)cc2)c2ccccc12)Nc1ccccc1 | inactive: -10.1% | – |
| CCN(C[C@H]1N[C@@](Cc2ccccc2)(C(=O)OC)[C@H]2C(=O)N(Cc3ccccc3)C(=O)[C@@H]12)C(=O)Nc1ccc(C)cc1 | – | inconclusive [inhibitor, single point] |
| CCn1c2ccccc2c2cc(/C=N/NC(=O)c3ccccc3C)ccc21 | – | inconclusive [inhibitor, partial curve, poor fit] |
| Cc1ccc(NC(=O)c2nc(S(=O)(=O)Cc3ccccc3C)ncc2Cl)cc1C | – | active: 3.66 µM |
| COc1ccc(C2C(C#N)=C(N)N(Nc3ccccc3)C3=C2C(=O)CC(C)(C)C3)cc1C (stereo unspecified) | – | inconclusive [inhibitor, single point] |
| COc1ccc(-c2csc(NC(C)c3nc4cc(C(F)(F)F)ccc4n3CCOCCO)n2)cc1 (stereo unspecified) | – | inconclusive [inhibitor, single point] |
| Cc1nn2c(NCc3ccccn3)c3c(nc2c1-c1ccccc1)CCC3 | – | inconclusive [inhibitor, partial curve, poor fit] |
| COCCN(Cc1cc2cc3c(cc2nc1Cl)OCO3)C(=O)c1ccc(C)cc1 | inactive: 6.83% | – |
| COC(=O)c1sccc1NC(=O)CN1CCN(c2ccc(F)cc2)CC1 | inactive: -2.65% | – |
| COc1cc2oc(=O)cc(-c3ccc(-c4ccc(O)cc4)cc3)c2c(OC)c1OC | – | inconclusive [inhibitor, single point] |
| O=S(=O)(/C(=C\c1ccc(C(F)(F)F)cc1)c1nc2ccccc2[nH]1)c1ccccc1 | – | active: 3.26 µM |
| COc1ccc(CNc2cccc3[nH]c(C(F)(F)F)nc23)cc1OC | inactive: -20.9% | – |
| NC(=O)c1sc(-c2ccsc2)cc1NS(=O)(=O)c1ccc(C(F)(F)F)cc1 | – | inconclusive [inhibitor, single point] |
| CN(C)C(=O)c1cccc(-c2cc(NC=O)c3ncc(-c4ccc(F)cc4)n3c2)c1 | – | inconclusive [inhibitor, partial curve, poor fit] |
| CCOC(=O)CNC(=O)CSc1nnc(Cn2c(=O)sc3ccccc32)n1-c1ccccc1C | inactive: 4.41% | – |

| Structure (SMILES) | activity, negative = inhibition | Potency |
| --- | --- | --- |
| CS(=O)(=O)c1ccc(C(=O)OCC(=O)NC(=O)C2CCCCC2)cc1[N+](=O)[O-] | – | inconclusive [inhibitor, single point] |
| CCOC(=O)N1CCC(NC(=O)c2ccc3c(c2)N=C(CC)c2cc(C)ccc2S3)CC1 | – | inconclusive [inhibitor, single point] |
| CCOc1c(Cl)cc(/C=N/NC(N)=S)cc1OC | – | inconclusive [inhibitor, single point] |
| CC(=O)Nc1ncnc2c1c(-c1ccc(Cl)cc1)nn2C(C)(C)C | – | inconclusive [inhibitor, partial curve, poor fit] |
| Cc1ccc(NS(=O)(=O)c2ccc(OCC(=O)Nc3cccc([N+](=O)[O-])c3)c(C)c2)cc1 | inactive: 10.2% | – |
| NCCCNc1nc(N)c([N+](=O)[O-])c(NC2CCCCC2)n1 | – | active: 5.8 µM |
| Cc1cc(C)nc(/N=C(\N)Nc2ccccc2-c2ccccc2)n1 | – | inconclusive [inhibitor, single point] |
| Cc1ccccc1NC(=O)c1ccc(Nc2c([N+](=O)[O-])cc([N+](=O)[O-])c3ccccc23)cc1 | inactive: 2.29% | – |
| CN(C)c1cccc(/C=C(\C#N)c2ccccc2)c1 | – | inconclusive [inhibitor, single point] |
| CCCc1nnc(NC(=O)C(CC)OC(=O)c2cc(C)nc3ccccc23)s1 (stereo unspecified) | inactive: 7.81% | – |
| COc1ccc(-c2cc(-c3ccccc3O)[nH]n2)cc1 | – | inconclusive [inhibitor, single point] |
| Oc1ccccc1-c1nc2cnccn2c1Nc1ccc2c(c1)OCCO2 | – | inconclusive [inhibitor, single point] |
| COc1cc(CN2CCC(C(=O)NC(c3ccc(F)cc3)c3ccc4ccccc4n3)CC2)cc(OC)c1 (stereo unspecified) | – | active: 8.2 µM |
| NC(=O)c1oc2ccccc2c1NC(=O)c1ccc([N+](=O)[O-])o1 | – | inconclusive [inhibitor, partial curve, poor fit] |
| CCOc1ccc(NC(=O)CSc2ncc(-c3ccc(F)cc3)n2Cc2ccco2)cc1 | – | inconclusive [inhibitor, single point] |
| COc1ccc(C2CC(c3ccccc3OC(C)=O)=NN2C(=O)/C=C/c2ccccc2)cc1OC (stereo unspecified) | – | inconclusive [inhibitor, partial curve, poor fit] |
| COc1ccc(-c2coc3c(C(=O)NCC(C)C)cccc23)c(C)c1 | – | inconclusive [inhibitor, single point] |
| COc1ccc(-c2cc3ccccc3oc2=O)cc1NC(=O)c1ccc([N+](=O)[O-])o1 | inactive: -27.2% | – |
| CCCOc1ccc(C(=O)CCN2CCN(C(=O)OCC)CC2)cc1 | – | active: 18.4 µM |
| S=C(Nc1ccc(Br)cc1)NC1CCCCC1 | – | inconclusive [inhibitor, single point] |
| Cc1cc(C)c2cc(C(=O)N3CCC(C(=O)c4ccc(F)cc4)CC3)[nH]c2c1 | – | inconclusive [inhibitor, single point] |
| O=C1Cc2c([nH]c3ccc(Br)cc23)-c2ccccc2N1 | – | active: 2.91 µM |

| Structure (SMILES) | activity, negative = inhibition | Potency |
| --- | --- | --- |
| Cc1cc(NC(=O)CS(=O)(=O)c2cn(Cc3cccc(Br)c3)c3ccccc23)no1 | – | inconclusive [inhibitor, single point] |
| Clc1cccc(Nc2nc(-c3ccncc3)nc3ccccc23)c1 | – | inconclusive [inhibitor, single point] |
| COc1ccccc1NS(=O)(=O)c1cccc(NC(=O)Nc2ccccc2)c1 | – | inconclusive [inhibitor, single point] |
| COc1ccc(NC(=O)CNC(c2ccccc2)c2ccccc2)cc1Cl | – | inconclusive [inhibitor, single point] |
| COc1ccc2cc(-c3ccccc3F)ncc2c1 | inactive: 0.101% | – |
| COc1ccc(-c2nc(NC(=O)C3CC(=O)N(c4ccc5c(c4)OCCO5)C3)sc2C)cc1 (stereo unspecified) | – | inconclusive [inhibitor, partial curve, poor fit] |
| C(=C\c1ccccc1)/CN1CCN(C(c2cccs2)c2nnnn2Cc2ccccc2)CC1 (stereo unspecified) | – | inconclusive [inhibitor, single point] |
| C/C=C1\COC(C(=O)NCc2ccccc2)(C(F)(F)F)C=C1C=C1CCCCC1 (stereo unspecified) | – | inconclusive [inhibitor, single point] |
| COc1ccc(COc2cc(-c3cccc(OC)c3)nc3ccc(N)cc23)cc1 | – | active: 1.84 µM |
| O=C(CSc1nc(-c2ccc(Cl)cc2)cs1)Nc1cccc([N+](=O)[O-])c1 | inactive: -4.51% | – |
| CCN(CC)S(=O)(=O)c1ccc2oc(SCC(=O)Nc3cc(C)on3)nc2c1 | inactive: -25.9% | – |
| CCCCC[C@H]1CN(CCc2ccccc2)C(=O)[C@@H]1CC(=O)NCc1ccc(OC)cc1 | – | inconclusive [inhibitor, partial curve, poor fit] |
| O=C(c1cc(-n2cnnc2)ccc1Cl)N1CCN(c2nc(-c3ccccc3)cs2)CC1 | – | inconclusive [inhibitor, single point] |
| CC(C)(C)C(=O)NCCCc1nc2ccccc2n1CCCOc1ccc(Cl)cc1 | – | inconclusive [inhibitor, single point] |
| COc1c(C(C)C)oc2cc3oc(=O)ccc3cc12 | inactive: 2.12% | – |
| Cc1ccc(NC(=O)c2cc(S(=O)(=O)NCCC3=CCCCC3)ccc2F)cc1 | – | active: 25.9 µM |
| O=C1C=C(Nc2ccccc2)C(=O)c2ccccc21 | – | inconclusive [inhibitor, partial curve] |
| CC[C@]12c3[nH]c4cc(-c5ccco5)ccc4c3CCN1C(=O)[C@@H](CC(=O)NCc1cccc(C(F)(F)F)c1)C[C@@H]2C(=O)N1CCN(C(=O)c2ccco2)CC1 | – | inconclusive [inhibitor, single point] |
| FC(F)(F)c1nc2ccccc2n2c(-c3ccc(Cl)cc3)nnc12 | inactive: 11.7% | – |
| COc1ccc(CNC(=O)C[C@H]2C[C@H](C(=O)N3CCOCC3)[C@@]3(CCC4CCCC4)c4[nH]c5cc(-c6ccco6)ccc5c4CCN3C2=O)cc1OC | – | inconclusive [inhibitor, partial curve, poor fit] |
| C/C(CC(=O)Nc1ccc(Cl)c(C(F)(F)F)c1)=N\NC(=O)c1ccccc1O | – | inconclusive [inhibitor, single point] |
| CC(C)(C)C(=O)N1CCN(c2ccc(NC(=O)c3ccc([N+](=O)[O-])o3)cc2)CC1 | – | inconclusive [inhibitor, partial curve, poor fit] |
